This passage reports binding signal results from article PMC9911399, “Two distinct binding modes provide the RNA-binding protein RbFox with extraordinary sequence specificity”.

T1: RBFOX1 RRM (Homo sapiens, UniProt Q9NWB1 109-208)
T1 sequence: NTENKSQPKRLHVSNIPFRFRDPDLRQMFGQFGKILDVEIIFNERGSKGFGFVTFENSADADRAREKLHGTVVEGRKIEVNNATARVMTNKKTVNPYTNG

B1: CUAAUGA (DNA:RNA)
RNA: GGGAGACCGGAAUUCAGAUUGUCCCUAAUGAUUAAAUCCCGUCGUAGCCACCA
DNA 1: CAATCTGAATTCCGGTCTCCC
DNA 2: TGGTGGCTACGACGGGATT
B2: CACAAAA (DNA:RNA)
RNA: B1 RNA with U26A, A27C, U29A, G30A
DNA 1: CAATCTGAATTCCGGTCTCCC
DNA 2: TGGTGGCTACGACGGGATT
B3: AGCUCGU (DNA:RNA)
RNA: B1 RNA with C25A, U26G, A27C, A28U, U29C, A31U
DNA 1: CAATCTGAATTCCGGTCTCCC
DNA 2: TGGTGGCTACGACGGGATT
B4: UUGGCCG (DNA:RNA)
RNA: B1 RNA with C25U, A27G, A28G, U29C, G30C, A31G
DNA 1: CAATCTGAATTCCGGTCTCCC
DNA 2: TGGTGGCTACGACGGGATT
B5: GUACAUC (DNA:RNA)
RNA: B1 RNA with C25G, A28C, U29A, G30U, A31C
DNA 1: CAATCTGAATTCCGGTCTCCC
DNA 2: TGGTGGCTACGACGGGATT
B6: GGGUCUA (DNA:RNA)
RNA: B1 RNA with C25G, U26G, A27G, A28U, U29C, G30U
DNA 1: CAATCTGAATTCCGGTCTCCC
DNA 2: TGGTGGCTACGACGGGATT
B7: AACGAGA (DNA:RNA)
RNA: B1 RNA with C25A, U26A, A27C, A28G, U29A
DNA 1: CAATCTGAATTCCGGTCTCCC
DNA 2: TGGTGGCTACGACGGGATT
B8: UAUCUCA (DNA:RNA)
RNA: B1 RNA with C25U, U26A, A27U, A28C, G30C
DNA 1: CAATCTGAATTCCGGTCTCCC
DNA 2: TGGTGGCTACGACGGGATT
B9: GAAUAAA (DNA:RNA)
RNA: B1 RNA with C25G, U26A, A28U, U29A, G30A
DNA 1: CAATCTGAATTCCGGTCTCCC
DNA 2: TGGTGGCTACGACGGGATT
B10: ACACGAA (DNA:RNA)
RNA: B1 RNA with C25A, U26C, A28C, U29G, G30A
DNA 1: CAATCTGAATTCCGGTCTCCC
DNA 2: TGGTGGCTACGACGGGATT
B11: UUUCGCU (DNA:RNA)
RNA: B1 RNA with C25U, A27U, A28C, U29G, G30C, A31U
DNA 1: CAATCTGAATTCCGGTCTCCC
DNA 2: TGGTGGCTACGACGGGATT
B12: GGUACCG (DNA:RNA)
RNA: B1 RNA with C25G, U26G, A27U, U29C, G30C, A31G
DNA 1: CAATCTGAATTCCGGTCTCCC
DNA 2: TGGTGGCTACGACGGGATT
B13: CUGGUCG (DNA:RNA)
RNA: B1 RNA with A27G, A28G, G30C, A31G
DNA 1: CAATCTGAATTCCGGTCTCCC
DNA 2: TGGTGGCTACGACGGGATT
B14: CACCCUU (DNA:RNA)
RNA: B1 RNA with U26A, A27C, A28C, U29C, G30U, A31U
DNA 1: CAATCTGAATTCCGGTCTCCC
DNA 2: TGGTGGCTACGACGGGATT
B15: GCGCAUC (DNA:RNA)
RNA: GGGAGACCGGAAUUCAGAUUGUCCGCGCAUCUUAAAUCCCGUCGUAGCCACCA
DNA 1: CAATCTGAATTCCGGTCTCCC
DNA 2: TGGTGGCTACGACGGGATT
B16: GCUUGGU (DNA:RNA)
RNA: B15 RNA with G27U, C28U, A29G, U30G, C31U
DNA 1: CAATCTGAATTCCGGTCTCCC
DNA 2: TGGTGGCTACGACGGGATT
B17: AGCGAUA (DNA:RNA)
RNA: B15 RNA with G25A, C26G, G27C, C28G, C31A
DNA 1: CAATCTGAATTCCGGTCTCCC
DNA 2: TGGTGGCTACGACGGGATT
B18: ACAGGUA (DNA:RNA)
RNA: B1 RNA with C25A, U26C, A28G, U29G, G30U
DNA 1: CAATCTGAATTCCGGTCTCCC
DNA 2: TGGTGGCTACGACGGGATT
B19: CUGGCGA (DNA:RNA)
RNA: B1 RNA with A27G, A28G, U29C
DNA 1: CAATCTGAATTCCGGTCTCCC
DNA 2: TGGTGGCTACGACGGGATT
B20: CAGCACU (DNA:RNA)
RNA: B15 RNA with G25C, C26A, U30C, C31U
DNA 1: CAATCTGAATTCCGGTCTCCC
DNA 2: TGGTGGCTACGACGGGATT

Numbering of substitutions follows the chain as printed; changes in the protein carry UniProt numbers. This is one part of the list.

This assay has as its target T1, RBFOX1 RRM. Description: EMSA; HiTS-Eq, 1 nM pool, 10 min; buffer printed only for the single-RNA assays: 10 mM Tris pH 7.5, 150 mM NaCl, 3.4 mM EDTA, 0.001% NP-40, 30 C. The note with it: tags: His6 N-terminal (pET28a); label: 5' 32P. Summed up: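 These values rest on relative association constants, computed from read-count changes of each RNA species versus the control reaction and normalised to the cognate motif. Reads came from free RNA recovered by 8% native PAGE after purified RbFox RRM (wild type or mutant) at increasing concentrations was equilibrated for 10 min in 50 µL with 1 nM of a 5′-radiolabelled pool with 7 randomized nucleotides and DNA-annealed flanks.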
Regarding B1, the binding signal was 0.00907 KA relative to UGCAUGU.
To B2 belongs 0.000994 KA relative to UGCAUGU; to B3, 0.0167 KA relative to UGCAUGU; to B4, 0.0281 KA relative to UGCAUGU.
Take B5: the binding signal is 0.00647 KA relative to UGCAUGU.
Take B6: the binding signal is 0.00955 KA relative to UGCAUGU.
With B7 the figure was 0.00507 KA relative to UGCAUGU.
With B8 the figure was 0.00389 KA relative to UGCAUGU; with B9, 0.000638 KA relative to UGCAUGU; with B10, 0.00347 KA relative to UGCAUGU.
To B11 belongs 0.0163 KA relative to UGCAUGU.
As to B12, the binding signal was 0.0159 KA relative to UGCAUGU.
With B13 the figure was 0.028 KA relative to UGCAUGU.
In the case of B14, the binding signal is 0.00104 KA relative to UGCAUGU.
As for B15, the binding signal is 0.0246 KA relative to UGCAUGU.
Turning to B16, the binding signal was 0.0285 KA relative to UGCAUGU.
To B17 belongs 0.00447 KA relative to UGCAUGU.
To B18 belongs 0.00528 KA relative to UGCAUGU.
To B19 belongs 0.0158 KA relative to UGCAUGU; to B20, 0.00669 KA relative to UGCAUGU.
